This is an account of results in PMC12136788.

The other results are listed elsewhere or left out.

To fix the notation:
T1: UNK ZnF1-6 (called full-length) (human, UniProt Q9C0B0 30-357)
T1 sequence: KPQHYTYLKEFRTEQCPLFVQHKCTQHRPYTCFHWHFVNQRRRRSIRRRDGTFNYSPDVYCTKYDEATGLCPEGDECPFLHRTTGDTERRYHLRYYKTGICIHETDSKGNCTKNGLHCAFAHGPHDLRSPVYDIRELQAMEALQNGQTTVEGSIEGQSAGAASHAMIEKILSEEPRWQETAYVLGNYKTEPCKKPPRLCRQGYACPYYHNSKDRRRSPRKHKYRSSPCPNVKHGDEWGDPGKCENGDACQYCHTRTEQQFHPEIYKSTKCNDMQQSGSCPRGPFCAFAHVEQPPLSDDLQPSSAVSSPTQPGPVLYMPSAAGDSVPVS

B1: chr2:112646914:112647020:+|CDS|ENSG00000144136|unk|total|mutant (ssRNA)
RNA: GGGAGUUCUACAGUCCGACGAUCGCUCAUCCUGGGCUUCAUUAUUGCAUUUGUCUUGGCAUUCUCCGUGGGAGCCAAUGAUGCCGCAAAUUCUUUUGGUACAGCUGUGGGCUCAGGUGCCGUGACCCUGAAGCAAGCCUGCAUCAACAGAGGAUUGAGCAUCA
B2: chr9:136116483:136116900:-|CDS|ENSG00000238227|control|control|control (ssRNA)
RNA: GGGAGUUCUACAGUCCGACGAUCUUCGACGUGUACAUCAAGACGCGCUGGCUGUACGGCUUCAUCCGCUUCCUACUCUACUUUAGCUGCAGCCUGUUCACUGCGGCGCUCUGGGGUGCGCUGGCCGCCCUCUUCUGCCUACAGCAACAGAGGAUUGAGCAUCA
B3: chr17:7656804:7656905:+|3pUTR|ENSG00000129244|unk|total|mutant (ssRNA)
RNA: GGGAGUUCUACAGUCCGACGAUCGCAUGUGCCACCAUGCCCGGCUAAUUUCUUUCUUUCUUUUUUUUUUUUUUUGCAUUUUUCCGCCGAGAUGGGGGUUUCUCCUUGUUGGUCAGGCUGGUCUCGAACUCCCGACCUCAGGUGCAACAGAGGAUUGAGCAUCA
B4: chr9:74692981:74693082:+|3pUTR|ENSG00000198963|unk|total|mutant (ssRNA)
RNA: GGGAGUUCUACAGUCCGACGAUCUUUUAUAUUACUUCCGAAUGUAACCGGUUUUUGUCCUUAUUUUAUGUCCUGUAAAUUAUCCGUUCAAUACUGUCCGCAUUCCCGGAUAAUGCACACAUGAUUUCUGAAUGUUUUCUGUAACAACAGAGGAUUGAGCAUCA
B5: chr10:75150949:75151073:+|CDS|ENSG00000156671|unk|FALSE|unique (ssRNA)
RNA: GGGAGUUCUACAGUCCGACGAUCUGUUCGAAGAUUGGACCCAGAAUACUGGAAGACUAUACUGAGUUGUAUAUAUGUUUUUAUAGUAUUUGGAUUUACAUCUUUCAUUAUGGUUAUAGUCCAUGAGCGAGUGCCUGACAUGCACAACAGAGGAUUGAGCAUCA
B6: chr2:69942770:69942871:+|3pUTR|ENSG00000059728|unk|FALSE|unique (ssRNA)
RNA: GGGAGUUCUACAGUCCGACGAUCUGUUUCCAGAUGUUUCUUUAUGUAAAUAUGACGCCAAUGUAAAUCCUGUGUCAAGAUCAUAGAGAAUGGUGCUUUUUACUACAGUUAGCACAUGCAUUUUUAGAAACUACUACAUGUUUUCAACAGAGGAUUGAGCAUCA
B7: chr14:95709946:95710881:-|three_prime_utr|ENSG00000100721|control|control|control (ssRNA)
RNA: GGGAGUUCUACAGUCCGACGAUCUCUGGGAGGAAUGGACAGACAGAGGAUGAGCUCUACCCAGGGCCUGCAGGACCUGCCUGUAGCCCACUCUGCUCGCCUUAGCACUACCACUCCUGCCAAGGAGGAUUCCAUUUGGCAGAGCAACAGAGGAUUGAGCAUCA
B8: chr5:111496093:111496242:-|3pUTR|ENSG00000164211|unk|FALSE|unique (ssRNA)
RNA: GGGAGUUCUACAGUCCGACGAUCUUUACAUGUAUAGUUAAAUAUUAAAAUUCAUCUCUUGCAGUUCAAUAAAAGCUAUAGUAUAGAUUUUAUUUUUAAGAAGUUUAUAUAAUUCUUUUGUGAACCAAUAUGUAAAACUAGAAUCAACAGAGGAUUGAGCAUCA
B9: chr16:21983864:21984660:-|three_prime_utr|ENSG00000155714|control|control|control (ssRNA)
RNA: GGGAGUUCUACAGUCCGACGAUCAAAGAAAAUUGAGCUGGCAAAAGAUGAAUCUUUCACAAGCAGUGAUGAUAAUGAAAAUGUAGAUUUAGAUAAAAGACUUCAAUAUUAUAGAUAUCCGUGGUCAACUGUGCAUCACCCUGCCAACAGAGGAUUGAGCAUCA
B10: ENSG00000125170:stop:overlap|stop_codon|ENSG00000125170|stop_codon|NA|stop_codon (ssRNA)
RNA: GGGAGUUCUACAGUCCGACGAUCAGCGGCUGGAGAAGUAUCCAGAUGAGAAGUCGGUGUGCCUCCGGGGCUGCCCCAAGAGCUAGAGGCAGAGGAGUGGUACAAGACACUAUCUGUGGAGUGUCUGGGGUCCCGCCUCAACGACAACAGAGGAUUGAGCAUCA
B11: chr1:90030187:90030288:+|3pUTR|ENSG00000162664|unk|total|mutant (ssRNA)
RNA: GGGAGUUCUACAGUCCGACGAUCACCCAGUUCAAGUCAUGAUAAUUUCUUGUUAACUAAUCUUGAUUCCACCCUUACCAUGACCGAUUCAGUUUUCUACACAAGUAUAAGCUUUUAAAAAUGUAAUUCAGAUGAUGUUAAUCUCAACAGAGGAUUGAGCAUCA
B12: chr12:85803847:85803948:-|3pUTR|ENSG00000198774|unk|FALSE|unique (ssRNA)
RNA: GGGAGUUCUACAGUCCGACGAUCCCAAACCCAUGUUCAUUCACUGAGUGAGGUAUAGUGUGGGUUACAGAGAAAAUCAGUCAUAGUGUUAUUUGUUUAUGUCCUAUCUACAAAAGUUGCAAUGAUGGAAUUUGGAACCCUUCUCAACAGAGGAUUGAGCAUCA
B13: chr4:57023444:57023561:+|CDS|ENSG00000047315|unk|FALSE|unique (ssRNA)
RNA: GGGAGUUCUACAGUCCGACGAUCGAAUUGGAGAGCACCAAUAGACGCUAUACCAAGAGAGACUGUAGCACUUUUCUCAGAACUAGCGAGACGGGCAUUGUGGAUCAGGUUAUGGUAACUCUCAAUCAGGAAGGAUAUAAAUUUCAACAGAGGAUUGAGCAUCA
B14: chr12:1780521:1780622:+|CDS|ENSG00000006831|msi1|FALSE|bound_elsewhere (ssRNA)
RNA: GGGAGUUCUACAGUCCGACGAUCCCCAAAUAUCUCCUUUGUGGCCCCUCUGCAAGAGAAGGUGGUCUUUGGAUUAUUUUUCUUAGGAGCCAUUCUCUGCCUUUCUUUUUCAUGGCUCUUCCACACAGUCUACUGCCACUCAGACAACAGAGGAUUGAGCAUCA
B15: chr19:57593639:57593745:+|3pUTR|ENSG00000171649|unk|FALSE|unique (ssRNA)
RNA: GGGAGUUCUACAGUCCGACGAUCUGAACCUUCUUAUUUCUCUACAUUCUUGCCAUACUUGGUAUGGUUAGUCUUUUUAAUUUUAGUUGUUUUAAUAGCUGUAUAAUAGCAUCUGUCUGUGAUUUUAUUGCAUUUUUCUGGUAUCAACAGAGGAUUGAGCAUCA
B16: chr5:149977868:149977977:+|CDS|ENSG00000155850|unk|total|mutant (ssRNA)
RNA: GGGAGUUCUACAGUCCGACGAUCUAUUAAAAAGCUGCAGAAGAAUUGCCAGUGCAGUCCAGCCAAAGCCAAAAAUAUGAUUUCCGGUUUCCUUCCUGUUUUGCAGUGGCUCCCAAAAUACGACCUAAAGAAAAACAUUUCCGGCAACAGAGGAUUGAGCAUCA
B17: chr12:132079871:132079972:+|3pUTR|ENSG00000183495|msi1|FALSE|bound_elsewhere (ssRNA)
RNA: GGGAGUUCUACAGUCCGACGAUCAGAUGCUACCGUUGACCUGAGUUAAAUUCAUUUAGUCGUGUACGUAAAAACUCUCCUUUUAGUGUGUUAUUUUCUUGGCCUUCCCUUUUAAAGGUUAAAGUUUCUAACCUAAGAAUUAAGCAACAGAGGAUUGAGCAUCA
B18: chr14:52327222:52327364:+|CDS|ENSG00000125384|unk|FALSE|unique (ssRNA)
RNA: GGGAGUUCUACAGUCCGACGAUCAUUUUUGCAUAUAUGAAUGAAACCUCUUCCCGAAAGGAAAAAUGGGACCUCCAAGCUCUUAGGUUUUUAUCAAUUAAUUCAAUAAUUGACCCUUGGGUCUUUGCCAUCCUUAGGCCUCCUCAACAGAGGAUUGAGCAUCA
B19: chr14:74902662:74902763:+|3pUTR|ENSG00000119689|msi1|total|mutant (ssRNA)
RNA: GGGAGUUCUACAGUCCGACGAUCCCCCUGGGGACCAUGUGAUUAAGUUCCUAUCUUUUGAAAGUUUGUUCUGCAGAGACUUCCCGGAGGAUGCUGUGCCUCCCAAGCUCAGAGCAGCCUCUGUCCUGGCUGUGCACAUUCUCCCAACAGAGGAUUGAGCAUCA
B20: chr1:203741760:203741861:+|3pUTR|ENSG00000058668|msi1|total|mutant (ssRNA)
RNA: GGGAGUUCUACAGUCCGACGAUCAUUUUGGUUUUGUAAAACGUACAUGCUUCAAUAAUUCUUUUUUGUGUCUUAAAUACUCACCGGGGAAAAAAACAGCUCACCCAAGGUGUCCGGUUUCACAUAUAUAUUCAUCAACUAUUUCAACAGAGGAUUGAGCAUCA
B21: chr16:57253408:57253449:+|3pUTR|ENSG00000102931|msi1_unk|total|mutant (ssRNA)
RNA: GGGAGUUCUACAGUCCGACGAUCUGUGUGGCCGAUUACUUAUCAGAAAACAUAUAUGUCAUCUCCCGAACGAAGAAAAAGCACCGCCGUUCAAUUCCCAGUGUGUCCCUUUGAUUUUUUUUUUUUAACCGUAAAAAUAAGAAUCAACAGAGGAUUGAGCAUCA
B22: chr11:59152587:59152688:+|CDS|ENSG00000166801|msi1|FALSE|unique (ssRNA)
RNA: GGGAGUUCUACAGUCCGACGAUCAUUGAAAACUUCAAGAAAAAAAUGAAAGUAAAAAAUGGGGAAACAUUAUUUGAAUUGCAUAGAACAACGUUUGGGAAAGUAACAAAAAAUUCUUCUUCGAUUAAAGUAGUGAAACUUCUUCAACAGAGGAUUGAGCAUCA

The experiment concerns the target T1, UNK ZnF1-6 (called full-length). As to the kind of experiment: nsRBNS (natural sequence RNA bind-n-seq); RBNS binding buffer (assumed for nsRBNS): 25 mM Tris pH 7.5, 150 mM KCl, 3 mM MgCl2, 0.01% Triton X-100, 500 ug/ml BSA, 20 U/ml SUPERase-In, 4 C; UNK is unkempt and MSI1 is Musashi-1; names of the RNAs are library labels; protein concentration not given here; high values mean tight binding.
B1: the binding signal was determined as 0.77 enrichment R.

B2 had a binding signal of 0.684 enrichment R.

The molecule B3 showed a binding signal of 3.94 enrichment R.

For B4, the binding signal was found to be 0.468 enrichment R.

Turning to B5, the binding signal came out at 0.389 enrichment R.

For B6, the binding signal stood at 0.538 enrichment R.

Take B7: the binding signal was found to be 0.843 enrichment R.

B8 had a binding signal of 2.13 enrichment R.

Regarding B9, the binding signal was 2.22 enrichment R.

B10 yielded a binding signal of 1.01 enrichment R.

With B11, the binding signal turned out to be 0.405 enrichment R.

In the case of B12, the binding signal was determined as 0.351 enrichment R.

Take B13: the binding signal was found to be 2.23 enrichment R.

Regarding B14, the binding signal stood at 0.583 enrichment R.

In turn, B15 gave a binding signal of 122 enrichment R.

B16 returned a binding signal of 0.398 enrichment R.

B17 displayed a binding signal of 3.82 enrichment R.

Molecule B18 registered a binding signal of 4.52 enrichment R.

Regarding B19, the binding signal was determined as 0.463 enrichment R.

In turn, B20 returned a binding signal of 0.74 enrichment R.

As to B21, the binding signal was found to be 0.356 enrichment R.

As to B22, the binding signal turned out to be 0.453 enrichment R.
